Measurements as given in the BET-seq Pho4 binding data (Le et al. 2018).
The other results are listed elsewhere or left out. Values were computed here from the reads of four pooled replicates and scatter widely.

Molecular target: T1, Pho4 (S. cerevisiae) (UniProt P07270)
T1 sequence: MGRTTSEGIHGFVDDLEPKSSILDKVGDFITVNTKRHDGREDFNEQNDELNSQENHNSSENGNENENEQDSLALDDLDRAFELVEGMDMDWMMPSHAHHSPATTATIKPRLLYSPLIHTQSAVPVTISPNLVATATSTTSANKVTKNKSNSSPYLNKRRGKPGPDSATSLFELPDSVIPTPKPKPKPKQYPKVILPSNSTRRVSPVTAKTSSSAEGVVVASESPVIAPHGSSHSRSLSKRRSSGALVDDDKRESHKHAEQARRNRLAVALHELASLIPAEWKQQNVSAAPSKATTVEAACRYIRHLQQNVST
Experiment: relative binding free energy (BET-seq); higher = weaker binding
Settings: reference: library average

Relative binding free energy, 0.19 kcal/mol:
TAGGACACGTGGCTTA
TGTTTCACGTGCTTAA
TAGTACACGTGTTTAC
CGGATCACGTGGTAGG

Relative binding free energy, 0.29 kcal/mol:
CGGTTCACGTGATGGA

Relative binding free energy, 0.07 kcal/mol:
GTGGGCACGTGGATTC
AGGTGCACGTGATTTT
TAAGACACGTGTGGTA
CCTAGCACGTGGGTGC
TGCATCACGTGCGTGT

Relative binding free energy, 0.18 kcal/mol:
CTAATCACGTGGATGT
GGGTCCACGTGGAATT

Relative binding free energy, 0.26 kcal/mol:
CTATTCACGTGGATAG
GTTGACACGTGAAGGA
GTATGCACGTGAGAAT
TGTGTCACGTGATAGC
TGGTTCACGTGCGTTA
TCAATCACGTGGAGTG

Relative binding free energy, -0.04 kcal/mol:
CGGGGCACGTGAGGCG
TATCGCACGTGTTGCT
GTAGACACGTGGGGTA
TAAGTCACGTGTCGTG
TCAGGCACGTGGGTTG
GACAACACGTGGGGGT
GGGGACACGTGGGCTT

Relative binding free energy, 0.35 kcal/mol:
AGTTTCACGTGAATGG
GGTCGCACGTGAAGTT

Relative binding free energy, -0.08 kcal/mol:
AGGTCCACGTGGTTAG
TATGGCACGTGTCGTC
TAACGCACGTGTGTTA
GATGGCACGTGCGGGC

Relative binding free energy, 0.37 kcal/mol:
GATTTCACGTGATGGA

Relative binding free energy, -0.05 kcal/mol:
GCTGGCACGTGTATGT
GAATGCACGTGGCGGT
TGAGACACGTGGTAGA
GGTTGCACGTGGGGTG
ACAGTCACGTGGGTAT
GGAGACACGTGGTCTG
TAAGCCACGTGGAGTT

Relative binding free energy, 0.39 kcal/mol:
GCGCACACGTGAGGGT

Relative binding free energy, 0.21 kcal/mol:
CGTATCACGTGGAGTG
TATTTCACGTGCTGTT
AGTTCCACGTGATGGA

Relative binding free energy, 0.4 kcal/mol:
TAGATCACGTGATTCG

Relative binding free energy, 0.02 kcal/mol:
GTGTGCACGTGGCGGT
AGCGACACGTGTTGTA
ATATGCACGTGATAAG
GATTGCACGTGTTATT
ATTTACACGTGTCTGT

Relative binding free energy, -0.07 kcal/mol:
TAGATCACGTGGGGGT
TAGCGCACGTGTAGGT
GGTGGCACGTGTAGAG

Relative binding free energy, 0.27 kcal/mol:
GCTTTCACGTGTTCGG

Relative binding free energy, -0.22 kcal/mol:
ATTCGCACGTGGGGAT

Relative binding free energy, 0.22 kcal/mol:
GTCTACACGTGGTTGG
GGATGCACGTGAGTGC
TCTATCACGTGGGATA
TAATACACGTGTGAAG
TGAAGCACGTGATTGT

Relative binding free energy, 0.03 kcal/mol:
TCGTCCACGTGGTTGT
AAGGTCACGTGCGTAG

Relative binding free energy, -0.18 kcal/mol:
GTTGGCACGTGGCGTC
GGGTGCACGTGCTTAG

Relative binding free energy, -0.14 kcal/mol:
AATAACACGTGGAGTG
TGATGCACGTGTGTGA
GGCAGCACGTGCGGGA
TGTGGCACGTGCAATA
CGATGCACGTGGTGTT

Relative binding free energy, 0.28 kcal/mol:
TATCGCACGTGAAATT
TTGTTCACGTGTCGTA

Relative binding free energy, 0.23 kcal/mol:
GAGATCACGTGGCAGG
ACAGTCACGTGAGGGG
AGATTCACGTGGGGTA

Relative binding free energy, 0.04 kcal/mol:
GAGGGCACGTGACGGA
TAGGCCACGTGGATGG
ATTTACACGTGGTTCA
ATTGCCACGTGTGGCG

Relative binding free energy, 0.25 kcal/mol:
TTAGACACGTGAGTTG
GGTGTCACGTGAGGCC
TAATTCACGTGTTATC
GTTCTCACGTGGTGGG

Relative binding free energy, 0.11 kcal/mol:
CTGGGCACGTGTAAGA
AAGTGCACGTGATTGT

Relative binding free energy, 0.42 kcal/mol:
TCGTTCACGTGAGGGC

Relative binding free energy, -0.01 kcal/mol:
GGATGCACGTGTGCGC
TCCGGCACGTGTAGTG
CATTGCACGTGGATTG
GGCAGCACGTGTATGT
TTAAGCACGTGCGGAT
GAGAGCACGTGATAGG
ATGAACACGTGTTTAT

Relative binding free energy, 0.01 kcal/mol:
CGGGACACGTGGTAGT
TCTATCACGTGGGGGT
TTGGGCACGTGGACTT
GGGTACACGTGGAGGT
AGGTGCACGTGGAATG
ATCGGCACGTGATAGG
AGGAGCACGTGACGGT

Relative binding free energy, -0.02 kcal/mol:
TAAGACACGTGGGAGG
TCAGTCACGTGGGCGG
ATGAGCACGTGGAGGT
CGGTGCACGTGGTAGG
TCGGTCACGTGGAGTA
CGTGTCACGTGTGGAT

Relative binding free energy, 0.2 kcal/mol:
GCGTTCACGTGTATTG
ATTTCCACGTGGTAAG
AAGTACACGTGTTTAG
ATATTCACGTGGCATT
GCTTTCACGTGCAGGG
TGTTTCACGTGGGCGG

Relative binding free energy, 0.14 kcal/mol:
GCAGTCACGTGGTTGC
TTGGTCACGTGTAAGT
CGTGACACGTGTATTT
CGTGTCACGTGTGATT
GATTACACGTGGTAGC

Relative binding free energy, 0.13 kcal/mol:
CTTATCACGTGCTGGG
TGTATCACGTGTGATA
TGGTCCACGTGGAAGG
CTGGGCACGTGAGTAT
GAGTGCACGTGTTGAG

Relative binding free energy, 0.15 kcal/mol:
GGAGTCACGTGTTGCG
CGGGACACGTGTATTT
ATTTACACGTGTAAGG
CTAATCACGTGGTGGC
CTTATCACGTGGTTTT
GTAGCCACGTGATGGG

Relative binding free energy, 0.43 kcal/mol:
CGGTTCACGTGATAAT

Relative binding free energy, 0.05 kcal/mol:
GGGGTCACGTGCATAT
TTGATCACGTGGGTAG
AGAGCCACGTGTGTTG

Relative binding free energy, 0 kcal/mol:
CTGTACACGTGTAGGG
GATGTCACGTGCTTTG
GTATGCACGTGTTCAT
GGAAGCACGTGTCGTT
GGTGCCACGTGTAGGC

Relative binding free energy, -0.4 kcal/mol:
TAGGCCACGTGGGTGG

Relative binding free energy, -0.11 kcal/mol:
ATGTGCACGTGCGGGT

Relative binding free energy, -0.13 kcal/mol:
CGCGGCACGTGGTTGT
CGAGGCACGTGGGTTC
TTATGCACGTGGCGGC
TTATGCACGTGGTCGG
TTGTCCACGTGGCTTG
TTGGCCACGTGGTAGC
TGTAACACGTGTATGG

Relative binding free energy, -0.34 kcal/mol:
ACTGGCACGTGGGGGA

Relative binding free energy, -0.1 kcal/mol:
AGTAGCACGTGCGGGA
ACAGTCACGTGGGTTT
CAGAGCACGTGTGTGG
CGATGCACGTGGGATG
TGAAGCACGTGTTAGT
TGTGCCACGTGTTGTG

Relative binding free energy, 0.1 kcal/mol:
TAGGGCACGTGAGGGT
AGGTACACGTGTGAAG
TTAGCCACGTGAATGG
TTGGTCACGTGCAGGA
GTTCGCACGTGATGGC

Relative binding free energy, -0.12 kcal/mol:
TTTTGCACGTGTTCTA
GGCAGCACGTGGGAGT
GCCAGCACGTGGTGGT
TTAGTCACGTGCGCGG

Relative binding free energy, 0.16 kcal/mol:
GTGAACACGTGAGGTA
GGGTACACGTGATGAT
CGGGTCACGTGGAGAA
AGCTTCACGTGTTAGG
TTTGTCACGTGATACG
TTGATCACGTGGGCTC

Relative binding free energy, -0.03 kcal/mol:
AATGACACGTGGTGGA
GTATGCACGTGGGATC
TGGTGCACGTGTTGCG

Relative binding free energy, -0.25 kcal/mol:
AGAGGCACGTGGGGTG

Relative binding free energy, -0.23 kcal/mol:
GGTCGCACGTGGCGGT

Relative binding free energy, -0.2 kcal/mol:
ACTGGCACGTGGCTGT

Relative binding free energy, 0.47 kcal/mol:
GGCATCACGTGAAGTT

Relative binding free energy, 0.24 kcal/mol:
TAAGTCACGTGGAATA
GGCATCACGTGTGTTA
TATTACACGTGTGGCT
ATATTCACGTGTATAG
CAGTTCACGTGGTAGG
TAATTCACGTGTAGTA

Relative binding free energy, 0.41 kcal/mol:
GAGTTCACGTGGTTTA
GGTTTCACGTGATGTG
AATTACACGTGAATTT

Relative binding free energy, 0.38 kcal/mol:
TGTTTCACGTGGTGGT
TGACACACGTGAATTT
CAGTACACGTGAAGTG
TAGTTCACGTGAAAGT

Relative binding free energy, -0.27 kcal/mol:
ATAAGCACGTGGTTGG

Relative binding free energy, -0.19 kcal/mol:
TGGGGCACGTGGGACA

Relative binding free energy, 0.31 kcal/mol:
TACTACACGTGAGGTG
GGTTTCACGTGATTCG

Relative binding free energy, 0.08 kcal/mol:
GGATGCACGTGCCTTG
CTCGTCACGTGCTGGT

Relative binding free energy, 0.06 kcal/mol:
ATAGGCACGTGAGTTA
GAGAACACGTGTGCGT
CCGGTCACGTGGGTTA
TTGTGCACGTGACGAG
AATTGCACGTGGTTAT
CTGTACACGTGTTTGA
GGGTGCACGTGTGGGT
CGGGGCACGTGACGAG

Relative binding free energy, 0.12 kcal/mol:
CGTAGCACGTGAGGGA
TATATCACGTGGCTTT

Relative binding free energy, -0.15 kcal/mol:
TCGGGCACGTGTTACG

Relative binding free energy, -0.09 kcal/mol:
AAAGGCACGTGACGTG
AAGGGCACGTGGTTAG
TCGGGCACGTGCGTAT

Relative binding free energy, -0.26 kcal/mol:
ATAAGCACGTGGGGTT
ATTGGCACGTGTTCTG

Relative binding free energy, -0.17 kcal/mol:
CTGGGCACGTGGTGTG
TATGTCACGTGGGCTG
ATGCGCACGTGGGATG
GGGGGCACGTGCAGTG

Relative binding free energy, 0.33 kcal/mol:
AATTACACGTGTAATT
AAGCTCACGTGGTGAT
ATGGTCACGTGATTTT

Relative binding free energy, 0.3 kcal/mol:
AATATCACGTGTGATA

Relative binding free energy, -0.06 kcal/mol:
TAAGGCACGTGGAAGA
CTAAACACGTGTTGTT
TGAGGCACGTGGAATG
GTAAGCACGTGTTATA

Relative binding free energy, 0.36 kcal/mol:
TGTCACACGTGAGTTT
GGTTTCACGTGTGTGG
CTTTCCACGTGATGGT

Relative binding free energy, -0.16 kcal/mol:
CGTGGCACGTGCTTTT
TCCGGCACGTGGTGGG
GAGAGCACGTGGGATG

Relative binding free energy, 0.09 kcal/mol:
TTAGTCACGTGCGGCT
TTGGACACGTGGTTAT

Relative binding free energy, 0.17 kcal/mol:
AGATGCACGTGATGAG
CCATTCACGTGGGTTT
